Results on 1 molecule are retold here after US20230303648A1 (OSE IMMUNOTHERAPEUTICS, published 2023).

Assay [1] concerns the target T1, human CD127 on PD-1-negative cells (Jurkat, CHO or U937 cells expressing CD127 only) (human, UniProt P16871 21-459).
T1 construct: whole, on cells; U937 cells also carry endogenous CD132; also called PD-1-CD127+ cells; PD-1(-)CD127(+) cells
T1 sequence (looked up): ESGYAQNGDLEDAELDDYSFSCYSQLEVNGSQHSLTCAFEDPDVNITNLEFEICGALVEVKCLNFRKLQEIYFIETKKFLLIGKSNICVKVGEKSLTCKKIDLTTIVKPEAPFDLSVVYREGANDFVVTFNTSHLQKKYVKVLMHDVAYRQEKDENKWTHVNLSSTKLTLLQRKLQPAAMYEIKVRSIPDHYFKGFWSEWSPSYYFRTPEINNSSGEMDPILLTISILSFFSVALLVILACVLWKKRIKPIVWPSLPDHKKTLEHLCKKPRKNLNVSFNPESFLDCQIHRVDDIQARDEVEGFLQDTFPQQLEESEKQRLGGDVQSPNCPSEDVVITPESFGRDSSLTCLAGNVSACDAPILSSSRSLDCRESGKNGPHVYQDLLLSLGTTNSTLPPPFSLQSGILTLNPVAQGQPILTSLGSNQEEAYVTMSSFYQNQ
The assay can be described thus: flow cytometry, 1:1 co-culture of U937 PD-1+CD127+ and U937 PD-1-CD127+ cells, anti-human IgG PE; EC50 of binding, n=2. (In general: Flow cytometry measures light scatter and fluorescence of single cells or particles in a stream.)

Assay [2] addresses T2, recombinant human PD-1 (rPD1; Sino Biologicals, reference 10377-H08H) (human, UniProt Q15116 part only).
UniProt Q15116, sequence (Q15116 25-167 limits assumed): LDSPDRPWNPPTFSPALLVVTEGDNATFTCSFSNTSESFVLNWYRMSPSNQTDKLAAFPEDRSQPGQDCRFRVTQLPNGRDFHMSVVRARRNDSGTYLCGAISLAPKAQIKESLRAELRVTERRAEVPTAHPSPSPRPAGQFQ
T2 construct: bought; also called hPD1; PD-1 receptor
The assay can be described thus: ELISA: PD-1 immobilised, anti-human Fc peroxidase detection. On the technique in general: In an ELISA, binding on a coated surface is turned into a signal by an enzyme label.

B1: Construction 4: anti PD-1*1 IL-7 W142H*2 (other)
heavy: QIQLVQSGSELKKPGASVKVSCKASGYTFTHYAMNWVRQAPGQGLEWMGWINTNTGEPTYAQGFTGRFVFSLDTSVSTAYLQISSLKAEDTAVYYCAREREPGMDNWGQGTLVTVSSASTKGPSVFPLAPSSKSTSGGTAALGCLVKDYFPEPVTVSWNSGALTSGVHTFPAVLQSSGLYSLSSVVTVPSSSLGTQTYICNVNHKPSNTKVDKKV[… human IgG1 Fc with changes …]GGGGSGGGGSGGGGSDCDIEGKDGKQYESVLMVSIDQLLDSMKEIGSNCLNNEFNFFKRHICDANKEGMFLFRAARKLRQFLKMNSTGDFDLHLLKVSEGTTILLNCTGQVKGRKPAALGEAQPTKSLEENKSLKEQKKLNDLCFLKRLLQEIKTCHNKILMGTKEH
chain: DKTHTCPPCPAPELLGGPSVFLFPPKPKDTLMISRTPEVTCVVVDVSHEDPEVKFNWYVDGVEVHNAKTKPREEQYASTYRVVSVLTVLHQDWLNGKEYKCKVSNKALPAPIEKTISKAKGQPREPQVYTLPPCRDELTKNQVSLWCLVKGFYPSDIAVEWESNGQPENNYKTTPPVLDSDGSFFLYSKLTVDKSRWQQGNVFSCSVMHEALHNHYTQKSLSLSPGKGGGGSGGGGSGGGGSDCDIEGKDGKQYESVLMVSIDQLLDSMKEIGSNCLNNEFNFFKRHICDANKEGMFLFRAARKLRQFLKMNSTGDFDLHLLKVSEGTTILLNCTGQVKGRKPAALGEAQPTKSLEENKSLKEQKKLNDLCFLKRLLQEIKTCHNKILMGTKEH
light: DVVMTQSPLSLPVTLGQPASISCRSSQSLVHANTNTYLEWYQQRPGQSPRLLIYKVSNRFSGVPDRFSGSGSGTDFTLKISRVEAEDVGVYYCFQGTHVPNTFGQGTKLEIKRTVAAPSVFIFPPSDEQLKSGTASVVCLLNNFYPREAKVQWKVDNALQSGNSQESVTEQDSKDSTYSLSSTLTLSKADYEKHKVYACEVTHQGLSSPVTKSFNRGEC
notes: IgG1 N298A, knob-into-hole; also called anti PD-1*1 IL-W142H*2
As to B1, the binding result in assay [1] is given as “binds”. The EC50 in assay [2] worked out at 0.086 nM.

By EC50 is commonly meant the concentration giving half of the maximal effect.
